Measured values published in PubChem BioAssay AID624296 (National Center for Advancing Translational Sciences (NCATS), 2012).
The whole screen tested about 350,000 compounds, of which about 9,900 (2.8%) were called active. Inconclusive means that the source gave no clear call. Such entries were picked first, then a sample of the others. The call rests on the fitted dose curve; in most records, active means well fitted activation curve with a large enough effect; inconclusive means small, poorly fitted or top-dose-only effect; inactive means no such curve, though single readings can be large or run the other way. Potencies of inconclusive entries are left out as doubtful fits.

Assay: A quantitative high throughput screen for small molecules that induce DNA re-replication in MCF 10a normal breast cells. Further: nearly all actives have a fitted effect of over 50% in size. On activity, positive = re-replication: % of control where 0% means no effect.
Conditions: MCF 10A DNA re-replication, Hoechst nuclear intensity, 48 h; activity, positive = re-replication: at 46.1 µM (top of the series)
Potency means the concentration at half of the fitted maximal effect; tags describe the fitted curve by direction and shape.

Structure (SMILES)	Potency	activity, positive = re-replication
COc1ccc(O)c(/C=N\NC(=O)CCn2nnc3ccccc32)c1	inconclusive [activator, partial curve, poor fit]	–
COc1ccc(-c2nc(NC(C)=O)sc2-c2ccc(OC)cc2)cc1	inconclusive [activator, partial curve, poor fit]	–
COc1ccc(-c2cc(C(=O)N3CCN(C(c4ccccc4)c4ccccc4)CC3)no2)cc1	inconclusive [activator, full curve]	–
O=C(c1ccc(Br)cc1)N1CCC2(CC1)NCCc1[nH]cnc12	–	inactive: -0.619%
CSc1c(SCc2ccccc2)cnn(-c2ccccc2)c1=O	inconclusive [activator, partial curve]	–
ClC1(Cl)CC1Cn1cnc2ccccc21 (centres undefined)	inconclusive [activator, full curve, poor fit]	–
CCOC(=O)c1c(C)oc(NC(=O)COc2ccc(Cl)cc2C)c1C#N	inconclusive [activator, single point]	–
COC(=O)CSc1[nH]c2ccccc2c1[N+](=O)[O-]	active: 14.6 µM	–
Cc1ccc(NC(=S)NCc2ccc3c(c2)cc(C)n3C)c(C)c1	inconclusive [activator, single point]	–
CCOC(=O)c1ccc2c(c1)nc(SC/C(O)=C(\C#N)c1nc3ccccc3[nH]1)n2CC	inconclusive [activator, single point]	–
CC(C)C(C(=O)NC1CCCC1)N(CC1CCCO1)C(=O)CNS(=O)(=O)c1ccc(F)cc1 (centres undefined)	–	inactive: -0.452%
CCCCN(CC(=O)NCCOC)C(=O)Cn1nnc2ccccc21	–	inactive: 10.6%
Cc1ccc(-c2cc(C(F)F)n3ncc(C(=O)N4CCc5ccccc54)c3n2)cc1	active: 2.59 µM	–
COCCCn1c(SCC(=O)OC2CCCCC2)nnc1-c1ccco1	–	inactive: 5.94%
COc1ccccc1Nc1ncnc2c1oc1ccccc12	inconclusive [activator, partial curve, poor fit]	–
CC(=NNC(=S)N1CC2CCC(CC2)C1)c1cccc(C)n1	inconclusive [activator, full curve, poor fit]	–
O=S(=O)(NCc1ccccc1)c1ccc(Br)c2nsnc12	–	inactive: -1.71%
Cc1cc(Br)ccc1NC(=O)CN(C)C(=O)c1ccc(-n2cncn2)c([N+](=O)[O-])c1	–	inactive: 7.26%
CCOC(=O)c1c(CN2CCN(CC#N)CC2)n(C)c2cc(Br)c(OC)cc12	inconclusive [activator, single point]	–
Cc1ccc(C2N=C(N)Nc3nc4ccccc4n32)cc1 (centres undefined)	–	inactive: 2.14%
CCCCOc1cccc(C(=O)NC(=S)Nc2cccc(NC(=O)c3ccccc3Cl)c2)c1	–	inactive: 0.663%
COc1cc(C(=O)OCC(=O)NC2CCCCC2)cc(OC)c1OC	–	inactive: 5.79%
O=C(CSCc1ccccc1Cl)Nc1ccc(C(=O)O)cc1	–	inactive: -0.391%
O=C(CCn1cnnn1)Nc1ccccc1F	–	inactive: -7.41%
CCC(C)[C@H](NS(=O)(=O)c1ccc(C)cc1)C(=O)N1CCC(C(=O)N2CCC(C(=O)OC)CC2)CC1 (some centres undefined)	–	inactive: 25.8%

Structure (SMILES)	Potency	activity, positive = re-replication
CCOC(=O)c1cc2c(C)n(-c3ccc(C)cc3)c(C)c2ccc1=O	–	inactive: 12.4%
O=C(O)c1cc(-c2ccc(/C=C3\NC(=O)N(c4ccccc4)C3=O)o2)ccc1Cl	–	inactive: 2.33%
O=C(CC1C[C@H](C(=O)N2CCOCC2)[C@@]2(CCC3CCCC3)c3[nH]c4ccccc4c3CCN2C1=O)NCc1cccc(C(F)(F)F)c1 (some centres undefined)	–	inactive: 3.91%
C[C@H](CO)N1C[C@H](C)[C@@H](CN(C)Cc2ccc(Oc3ccccc3)cc2)Oc2c(NC(=O)C3CC3)cccc2C1=O	inconclusive [activator, full curve, poor fit]	–
N#Cc1nc(COc2ccccc2)oc1NCCN1CCOCC1	–	inactive: 0.994%
CCCc1[nH]nc2c1C(c1ccoc1)C(C#N)=C(N)O2 (centres undefined)	inconclusive [activator, single point]	–
CC(C)CCOc1ccc(C2(C)NC(=O)N(CN3CCOCC3)C2=O)cc1 (centres undefined)	–	inactive: 2.14%
C/C(=N\NC(=O)c1nnn(-c2nonc2N)c1-c1ccc(Cl)c(Cl)c1)c1ccncc1	–	inactive: 10%
O=C(CNC(=O)c1ccc(Br)o1)Nc1ccc(N2CCCCCC2)cc1	inconclusive [activator, single point]	–
O=C(Nc1nc(-c2ccccn2)cs1)c1ncc(Cl)c(Cl)c1Cl	inconclusive [activator, partial curve, poor fit]	–
CC(C)c1ccc(NC(=O)CN(Cc2ccccc2)S(C)(=O)=O)cc1	inconclusive [activator, partial curve]	–
CC(=O)Nc1ccc(SCC(=O)c2cc(C)n(-c3ccccc3F)c2C)cc1	active: 23.1 µM	–
CCOc1ccc(NS(=O)(=O)c2ccc(C(=O)NCCCN3CCCC3=O)cc2)cc1	inconclusive [activator, partial curve, poor fit]	–
CCOc1ccc(C2C(C(=O)Nc3ccccc3)=C(C)N=c3s/c(=C/c4cccc(OCC(=O)O)c4)c(=O)n32)cc1 (centres undefined)	inconclusive [activator, single point]	–
CC1(OCON)CCCc2ccccc21 (centres undefined)	–	inactive: -0.0735%
Cc1cc(C)c(S(=O)(=O)Nc2cccc3nsnc23)c(C)c1	inconclusive [activator, single point]	–
COc1ccc2cc(Br)ccc2c1CC(=O)NC1CC(C)(C)NC(C)(C)C1	–	inactive: 10%
COc1ccc(S(=O)(=O)N2CCCCC2)cc1NC(=O)CN(Cc1ccco1)Cc1ccco1	active: 20.6 µM	–
CN(Cc1ccccc1)CC(O)COc1ccc(CNCCc2ccncc2)cc1 (centres undefined)	inconclusive [activator, single point]	–
Cc1ccsc1/C=N/NC(=O)Cc1ccc([N+](=O)[O-])cc1	inconclusive [activator, single point]	–
Cc1cccn2c(=O)c3cc(C(=O)NCCCn4ccnc4)n(C)c3nc12	inconclusive [activator, single point]	–
Cc1ccc(/C=N/n2c(COc3ccccc3)n[nH]c2=S)o1	inconclusive [activator, single point]	–
Cc1ccc(-c2cc3cccc[n+]3cc2-c2ccc(C)cc2)cc1	inconclusive [activator, single point]	–
CCN(CC)C(=O)c1[nH]cnc1C(=O)N[C@@H](CC(C)C)C(=O)OC(C)(C)C	–	inactive: -0.345%
CCCc1ccc(OCc2nc(-c3ccc(NC(=O)c4ccco4)cc3)no2)cc1	inconclusive [activator, full curve, poor fit]	–

Structure (SMILES)	Potency	activity, positive = re-replication
COc1ccc2[nH]c3c(=O)n4c(nc3c2c1)SCCC4	inconclusive [activator, partial curve, poor fit]	–
COc1ccc(CC2CC(=O)N(c3ccc(C)cc3)C2=O)cc1 (centres undefined)	–	inactive: -0.625%
CN(C)c1ccc(C=NNC(=S)Nc2ccc(F)cc2)cc1	active: 20.6 µM	–
COc1cc(NC(=O)C/C(C)=N/NC(=O)Cc2ccc(Cl)cc2)c(OC)cc1Cl	inconclusive [activator, single point]	–
O=C(COC(=O)C1(c2ccc(F)cc2)CCCC1)NCc1ccc2c(c1)OCO2	–	inactive: 3.24%
CCOC(=O)COc1ccccc1/C=C1/NC(=O)NC1=O	–	inactive: 13.8%
CCCCCN1N=C(C)CC1=O	–	inactive: -0.151%
CCOC(=O)c1cccc(OS(=O)(=O)Cc2ccccc2)c1	–	inactive: 3.67%
CC(=O)Oc1ccc(C(=O)NC(C)CCc2ccccc2)cc1 (centres undefined)	–	inactive: -3.48%
O=C(NC1CCN(Cc2ccccc2)CC1)C1CCN(S(=O)(=O)c2cccc3nsnc23)CC1	inconclusive [activator, single point]	–
CCOC(=O)c1sc2nc(NC(=O)C(C)(C)C)sc2c1C	inconclusive [activator, partial curve, poor fit]	–
O=C(CNc1ccccc1Cl)N/N=C1\CCCc2ccccc21	inconclusive [activator, partial curve, poor fit]	–
O=C(Cc1ccccc1[N+](=O)[O-])Nc1nccs1	–	inactive: 1.58%
CC(=O)c1cccc(NC(=O)c2nc(-c3ccccc3)oc2C)c1	inconclusive [activator, partial curve, poor fit]	–
CNc1nc(-c2ccccc2)[n+](-c2ccc(C)cc2)s1	inconclusive [activator, single point]	–
Cc1cc(C(=O)NC(=S)Nc2ccccc2N2CCCC2)ccc1[N+](=O)[O-]	–	inactive: 9.1%
c1csc(-c2nc3nc4ccccc4nc3n2Cc2ccc3c(c2)OCO3)c1	inconclusive [activator, single point]	–
CCCC(=O)Nc1sc(C)c(C)c1C#N	–	inactive: -0.369%
COc1cc(NC(=O)Nc2ccc3c(c2)OCO3)cc(OC)c1OC	–	inactive: -7.12%
O=[N+]([O-])c1ccc(Nc2nc(N/N=C/c3cccc(F)c3)nc(N3CCCC3)n2)cc1	inconclusive [activator, partial curve, poor fit]	–
Cc1cc(=O)cc(C)n1-c1ccccc1N	–	inactive: 2.25%
COc1cccc(/C=N/NC(=O)c2ccncc2)c1OC(=O)c1ccc(Br)cc1	active: 14.6 µM	–
Cc1ccccc1NC(=O)NCCc1ccc(Cl)cc1	inconclusive [activator, partial curve, poor fit]	–
COc1ccc(-c2ccc(C)cc2)cc1[C@H]1[C@@H]2C=CCC[C@@]2(C)C(=O)N1Cc1ccccc1	inconclusive [activator, partial curve, poor fit]	–
